# Results taken from PubChem BioAssay AID686978 (National Center for Advancing Translational Sciences (NCATS), 2013).
# The whole screen tested about 420,000 compounds, of which about 64,000 (15%) were called active. The inconclusive results got no clear call from the source; some entries with a clear call stand among them for comparison. The call rests on the fitted dose curve; in most records, active means well fitted inhibition curve with a large enough effect; inconclusive means small, poorly fitted or top-dose-only effect; inactive means flat fitted curve, though single readings scatter. Potencies of inconclusive entries are left out as doubtful fits.
# Test: qHTS for Inhibitors of human tyrosyl-DNA phosphodiesterase 1 (TDP1): qHTS in cells in absence of CPT; further: nearly all actives have a fitted effect of over 55% in size
# Details: DT40 Tdp1-/- hTDP1 cells, no CPT, ATP luminescence, 48 h; activity change, negative = growth inhibition: at 46.2 µM (top of the series) unless noted
# Outline: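 No-CPT arm: Tdp1-/-;hTDP1 DT40 cells (400/well) plus compounds, incubated ≥48 hr at 37 °C. Readout CellTiter-Glo luminescence.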
# On the % scale 0 is the no-effect control and ±100 the full control effect; potency means the concentration at half of the fitted maximal effect; tags describe the fitted curve by direction and shape.
Compound,"activity change, negative = growth inhibition",Potency
Cn1ccsc1=NC(=O)c1cc(S(=O)(=O)N2CCOCC2)ccc1Cl,inactive: 1.11%,
Cn1c(=N)n(CC(O)c2cccc3ccccc23)c2ccccc21 (stereo not given),,active: 13 µM
O=C(c1cnccn1)N1CCC2(CC1)CCN(C(c1ccccc1)c1ccccc1)CC2,,"inconclusive [inhibitor, single point]"
CC(=O)N1CCCc2cc(S(=O)(=O)N3CCCC(C(=O)Nc4cc(C)ccc4C)C3)ccc21 (stereo not given),inactive: -29.5%,
COc1cc(NC(=O)COCc2cc(-c3ccc4c(c3)OCO4)on2)cc(OC)c1,,"inconclusive [inhibitor, single point]"
CC1C(=O)N(Cc2cn(CCC3OCCO3)nn2)CCS(=O)(=O)N1Cc1ccc(-c2ccccc2)cc1 (stereo not given),,"inconclusive [inhibitor, partial curve]"
CC(=O)OC1CC2C(C)(C)C(=O)C=C[C@]2(C)C2CC[C@@]3(C)C(c4ccoc4)OC(=O)C4O[C@@]43[C@]12C (stereo not given in full),,"inconclusive [inhibitor, single point]"
COc1cccc(C2CC(c3ccccc3Cl)n3ncnc3N2)c1 (stereo not given),,"inconclusive [inhibitor, single point]"
O=C(CN1CCCCC1)N1c2ccccc2Oc2ccccc21,,"inconclusive [inhibitor, single point]"
CC(Sc1nnc(-c2cccs2)n1C1CC1)C(=O)NCC1CCCO1 (stereo not given),inactive: -3.43%,
Cc1ccccc1C(=O)Nc1ccnn1C1CCN(Cc2ccc(CO)o2)CC1,inactive: 24%,
Cn1ncc2c(N3CCC(Cc4ccccc4)CC3)ncnc21,,active: 16.4 µM
CNc1nc(-c2ccccc2)nc(-c2ccccc2)c1C#N,inactive: -5.99%,
Cc1ccccc1-c1noc(-c2ccc(N3CCOCC3)c([N+](=O)[O-])c2)n1,,"inconclusive [inhibitor, single point]"
CC1CCC(N2CCN(S(=O)(=O)Cc3ccccc3)CC2)CC1 (stereo not given),,"inconclusive [inhibitor, partial curve]"
COc1cccc(C2=NOC(C(=O)Nc3cccc(C(C)=O)c3)C2)c1OC (stereo not given),,"inconclusive [inhibitor, single point]"
COc1cc(NS(=O)(=O)c2ccc(OC)c(C)c2C)c(OC)cc1Cl,,active: 3.26 µM
Nc1nc(Cl)cc(N2CCCC2)n1,inactive: 1.32%,
Cc1ccc(NC(=O)CNC(=O)c2ccc(OC(F)F)cc2)cc1S(=O)(=O)N1CCCCCC1,,"inconclusive [inhibitor, single point]"
COc1ccc(NC(=O)CN2CCc3ccccc3C2)cc1OC,,"inconclusive [inhibitor, partial curve]"
